Measurements: publication PMC4336329 (PLoS ONE, 2015)
The whole screen tested about 310,000 compounds, of which about 2,200 (0.71%) showed an effect of 50% or more. The effect is printed as a negative number. This is one part of the list.

target: human ether-à-go-go-related gene (hERG) potassium channel (human, UniProt Q12809); assay: primary screen, population patch clamp on CHO cells stably expressing hERG
Sequence (Q12809 whole entry, looked up): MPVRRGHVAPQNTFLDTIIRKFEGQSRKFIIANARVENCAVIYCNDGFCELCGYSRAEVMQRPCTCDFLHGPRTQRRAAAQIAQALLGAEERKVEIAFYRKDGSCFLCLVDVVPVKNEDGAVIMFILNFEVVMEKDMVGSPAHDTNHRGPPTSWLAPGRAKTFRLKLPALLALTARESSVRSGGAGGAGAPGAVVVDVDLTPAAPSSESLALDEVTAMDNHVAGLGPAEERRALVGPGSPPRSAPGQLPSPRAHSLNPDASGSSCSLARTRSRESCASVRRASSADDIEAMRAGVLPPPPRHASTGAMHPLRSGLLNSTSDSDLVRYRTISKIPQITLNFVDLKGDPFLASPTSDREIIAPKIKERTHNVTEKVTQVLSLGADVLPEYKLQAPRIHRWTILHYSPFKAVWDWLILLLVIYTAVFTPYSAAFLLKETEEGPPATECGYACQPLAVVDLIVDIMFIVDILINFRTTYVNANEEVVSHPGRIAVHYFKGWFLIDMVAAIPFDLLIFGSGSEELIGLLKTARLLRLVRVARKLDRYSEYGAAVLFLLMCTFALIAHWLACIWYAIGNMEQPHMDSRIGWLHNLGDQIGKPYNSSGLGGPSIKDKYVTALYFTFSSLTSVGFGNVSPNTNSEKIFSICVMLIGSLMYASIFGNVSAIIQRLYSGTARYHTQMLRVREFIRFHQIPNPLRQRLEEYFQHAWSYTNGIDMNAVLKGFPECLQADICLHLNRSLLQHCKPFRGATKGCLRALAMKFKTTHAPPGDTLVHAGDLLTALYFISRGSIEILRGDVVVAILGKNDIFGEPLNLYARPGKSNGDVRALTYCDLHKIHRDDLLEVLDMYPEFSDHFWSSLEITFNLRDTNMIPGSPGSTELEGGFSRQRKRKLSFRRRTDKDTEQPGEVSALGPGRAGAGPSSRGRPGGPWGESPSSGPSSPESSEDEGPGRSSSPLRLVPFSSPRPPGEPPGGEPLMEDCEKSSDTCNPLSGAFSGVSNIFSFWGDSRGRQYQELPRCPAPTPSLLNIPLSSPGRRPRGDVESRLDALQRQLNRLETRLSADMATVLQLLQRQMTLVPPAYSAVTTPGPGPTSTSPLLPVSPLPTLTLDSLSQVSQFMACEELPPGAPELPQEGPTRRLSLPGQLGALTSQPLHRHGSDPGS

| SMILES | hERG current change (%, negative = inhibition) at 1uM |
| --- | --- |
| CC(=O)Nc1ccc(SCC(=O)NC(=O)c2ccccc2Br)cc1 | 11.1% |
| O=C(CN(c1ccc(F)cc1)S(=O)(=O)c1ccccc1)NC1CCCCCC1 | 7.28% |
| Cn1cc(Cl)c(C(=O)OCC(=O)Nc2nc(-c3ccc(Br)cc3)cs2)n1 | 6.21% |
| O=C(NCc1cccnc1)C(=O)NCC1OCCN1S(=O)(=O)c1cc(F)ccc1F (stereo not drawn) | 2% |
| Cc1cc(C)c(Cn2c3ccccc3c3cnn(CC(=O)NCc4ccccn4)c(=O)c32)c(C)c1 | 15.2% |
| CCCCN(C)C(=O)CCC(=O)NNc1nc2ccccc2c2nc(C)nn12 | 7.84% |
| Cc1cccc(NC(=O)/C=C/c2ccc(Cl)cc2)n1 | 4.04% |
| O=c1oc(-c2cccs2)nc2ccc(Br)cc12 | 10% |
| Cc1c(NC(=O)C(C)Sc2ccccc2)c(=O)n(-c2ccccc2)n1C (stereo not drawn) | 0.452% |
| COCCCNC(=O)CCNS(=O)(=O)c1ccc(C)cc1 | 5.15% |
| C/C(=N\NC(=O)COc1ccc(C#N)cc1)c1ccc(N2CCOCC2)cc1 | 8.8% |
| Cc1ccc(S(=O)(=O)N2[C@@H](c3ccccc3F)C(C(=O)O)=CC[C@H]2c2cccs2)cc1 | 15.2% |
| CC(C)NC(=S)N=Nc1c(O)[nH]c2ccc([N+](=O)[O-])cc12 | 18.4% |
| COc1nc(N)nc(NC(=O)c2cccs2)c1N=O | 17.7% |
| COc1cc(C(=O)N2CCSCC2)ccc1OC1CCN(C(C)=O)CC1 | 5.62% |
| COc1ccc(-n2cc(CN3CCC(OC)CC3)c(-c3cccc(F)c3)n2)cc1 | 19.9% |
| Cc1ccc(N2C(=O)N(c3ccc(C)cc3)C3CS(=O)(=O)CC32)cc1 (stereo not drawn) | 14.3% |
| O=S(=O)(Nc1cccc2ncccc12)c1cccc(C(F)(F)F)c1 | 13.3% |
| CCC(=O)NNc1cc(=O)c2c(=O)n(C)c(=O)n(C)c2[nH]1 | 4.54% |
| CC(=O)c1cc(C#N)c(SCc2ccc([N+](=O)[O-])cc2)nc1C | 10.4% |
| CCN1CCCC1CN(Cc1cc2cc(OC)ccc2[nH]c1=O)C(=O)NCc1ccccc1 (stereo not drawn) | -8.13% |
| C#CCCc1ccccc1/C=[N+](/C)[O-] | 16.5% |
| CC[n+]1c(C)sc2cc(C)ccc21.[I-] | 11.3% |

| SMILES | hERG current change (%, negative = inhibition) at 1uM |
| --- | --- |
| CCc1ccc(C2CC(c3ccccc3Cl)Nc3nc(N)nn32)cc1 (stereo not drawn) | 14.6% |
| O=C(c1ccc(S(=O)(=O)N2CCCC2)cc1)N1CCN(c2cccc(Cl)c2)CC1 | -4.13% |
| COc1ccc(-c2cc(=O)oc3cc(OCC(=O)Nc4ccc(CCO)cc4)ccc23)cc1 | 8.93% |
| CCCCOC(=O)c1ccccc1C(=O)OCc1ccccc1 | 14.5% |
| Cc1cc(C)cc(OCC(=O)Nc2cccc(S(=O)(=O)NC3=NCCC3)c2)c1 | 7.29% |
| CCC(C)NC(=O)c1cc(Cl)ccc1OC (stereo not drawn) | -5.91% |
| FC(F)(F)c1ccc(CNCCc2c[nH]c3ccccc23)cc1.O=C(O)C(=O)O | 1.31% |
| Cc1cc(C(=O)CCl)c(C)n1-c1c(C)n(C)n(-c2ccccc2)c1=O | 9.82% |
| CCOC(=O)c1nc2ccccc2nc1C | 3.37% |
| Cn1c(=O)n(C)c2cc(/C=C(/C#N)C(=O)NCc3ccco3)ccc21 | 12.7% |
| Cc1cc(OCc2nc(-c3cccnc3)no2)c(C)cc1Br | 7.39% |
| O=C(Nn1c(SCc2ccc(F)cc2)nc2ccsc2c1=O)c1ccccc1 | 10.4% |
| CCCCSc1nc(C)c(C(C)=O)cc1C#N | 9.76% |
| CC1(C)CC(NC(=O)C(Cl)(Cl)Cl)CC(C)(C)N1 | 9.15% |
| CC(=O)Nc1nc2ccccc2[nH]1 | 1.74% |
| O=[N+]([O-])c1ccc2nc(NS(=O)(=O)c3ccccc3[N+](=O)[O-])sc2c1 | 16% |
| Cc1cc(C)n2c(Br)c(CN3CCCC(C)C3)nc2n1 (stereo not drawn) | 27.9% |
| Cc1oc2c(CN3CCCC3)c(O)ccc2c(=O)c1Oc1ccccc1Br | 4.09% |
| CN(C)CCn1c(SCc2ccccc2C#N)nc2c(sc3ccccc32)c1=O.Cl | 10.2% |
| Clc1cccc(CN2CCSCC2)c1 | 12.6% |
| CC1CCN(C(=O)CSc2nnc(Cc3cccn3C)n2-c2ccc(F)cc2)CC1 | 3.05% |
| CN(Cc1ccccn1)C(=O)C1CCC(=O)N(CCc2ccc(Cl)cc2)C1 (stereo not drawn) | -17.4% |
| COc1ccc(N(C(=O)CNC(=O)c2cccs2)C(C(=O)NCC2CCCO2)c2ccccc2)cc1OC (stereo not drawn) | 7.78% |

| SMILES | hERG current change (%, negative = inhibition) at 1uM |
| --- | --- |
| COc1cc(Cl)ccc1OCc1cc(C(=O)NCCCN2CCCC2=O)no1 | 11.4% |
| COc1ccccc1NC(=S)N1CCN(C(=O)C2CCCO2)CC1 (stereo not drawn) | 12.9% |
| COc1ccc(C2/C=C\CN(C(=O)C3CCCCC3)CC(=O)N2Cc2ccc(F)cc2)cc1 (stereo not drawn) | 6.71% |
| CCOC(=O)N/N=C(\C)c1ccc(-n2cnnn2)cc1 | 18.5% |
| CNC(=O)CSc1nc2ccccc2c(=O)n1CCc1ccccc1 | 14% |
| C=CCC1(CC=C)CCCN1C(=O)C1CCC(=O)N(CCc2ccc(Cl)cc2)C1 (stereo not drawn) | -2.41% |
| COC(=O)CNc1c(-c2ccccn2)nc2ccc(Br)cn12 | 10% |
| CC1CN(C(=O)Nc2cccc(C(F)(F)F)c2)CC(C)O1 (stereo not drawn) | 15.1% |
| Cc1ccc(S(=O)(=O)NCc2ccccc2)cc1C(=O)NCC(C)(C)N1CCOCC1 | 10.7% |
| CCCn1c(N)c(NCCN2CCOCC2)c(=O)n(CC(=O)NCc2ccccc2)c1=O | 12.4% |
| COc1ccc(OC)c(N=C2C(=O)Nc3ccccc32)c1 | 5.48% |
| CCOC(=O)NC(NS(=O)(=O)c1ccccc1)(C(=O)OCC)C(F)(F)F (stereo not drawn) | 5.62% |
| CCOC(=O)CN1C(=O)N[C@@H](c2cccs2)C(C(C)=O)=C1C | 16.1% |
| CCN1CCN(C(=O)c2ccc3c(c2)S(=O)(=O)c2ccccc2C3=O)CC1.Cl | 6.61% |
| COc1ccc(CC(=O)NC(C)CCc2ccccc2)cc1OC (stereo not drawn) | 2.11% |
| COc1ccc(CN2CCN(C(=O)c3ccco3)CC2)c(OC)c1OC | 15.4% |
| Cc1ccccc1C(=O)NC1CCN(C(=O)NC2CCCCC2)CC1 | 19.8% |
| CCN(CC)c1ccc(N=Cc2c(O)n(Cc3ccccc3)c(=O)[nH]c2=O)cc1 [14738079] | 14.2% |
| CSc1ccc(CNc2nc3ccccc3n3cnnc23)cc1 | 9.37% |
| Cc1nnc(SCC(=O)Nc2ccccc2)n1CCc1ccccc1 | 1.74% |
| COc1cccc(-c2nc(CS(=O)(=O)CC(=O)NCCCOC(C)C)c(C)o2)c1 | 7.19% |
| Cc1nn(Cc2ccccc2Cl)c(C)c1NC(=O)CSc1n[nH]c(C)c1[N+](=O)[O-] | 17.7% |
| Cc1nc(NC(=O)c2cc3c(s2)CCCCC3)sc1C(=O)N(C)C | -6.86% |

| SMILES | hERG current change (%, negative = inhibition) at 1uM |
| --- | --- |
| COC(=O)c1ccc(-c2nc3cc(N)ccc3o2)cc1 | 2.82% |
| Cc1occc1C(=O)NNC(=O)c1ccc(F)cc1 | 3.59% |
| CC1(C)CC(NC(=O)C2CCCCC2C(=O)O)CC(C)(C)N1 (stereo not drawn) | 13.1% |
| CCn1c(C(=O)N2CCc3ccccc3C2)cc2sccc21 | 16% |
| Cc1ccc(S(=O)(=O)c2nc(S(C)(=O)=O)sc2N2CCCCCC2)cc1 | 13.7% |
| CCSc1nc(C2CC2)cc(-c2cccs2)c1C#N | 1.73% |
| CC(C)(Cc1ccc(O)cc1)NC(=O)CC(=O)N=Nc1c(O)[nH]c2cc(Br)ccc12 | 1.28% |
| O=S(=O)(c1cccc(-c2nnc(-c3cccnc3)o2)c1)N1CCCCC1 | 1.89% |
| COc1ccccc1NC(=O)CSc1nnc(Cc2cccs2)n1C | 17.6% |
| O=C(NCc1ccc2c(c1)OCO2)C1CCCN(S(=O)(=O)c2cccs2)C1 (stereo not drawn) | 8.27% |
| CCOC(=O)c1cnc(SCC(=O)Nc2cc(OC)ccc2OC)nc1N | 14% |
| O=C(NCC1CCCO1)C1CCN(S(=O)(=O)c2cccc3nonc23)CC1 (stereo not drawn) | 9.16% |
| CS(=O)(=O)Nc1ccc(S(=O)(=O)N2CCCC2)cc1 | 2.14% |
| C=CCc1c(C)nc2c(OC)cccc2c1Cl | 0.675% |
| CN(Cc1ccc(F)cc1)C(=O)c1cccc(NS(=O)(=O)c2ccccc2)c1 | 12.6% |
| CSc1nsc(/C=C/Nc2ccc(C)c(C)c2)c1C#N | 6.29% |
| COc1cccc(C(=O)NNC(=O)c2ccccc2Br)c1 | 8.48% |
| CN(C)c1ccc(C(=O)OCC(=O)NCCC2=CCCCC2)cc1 | 11.2% |
| c1ccc(-n2c(-c3ccco3)nnc2-c2ccco2)cc1 | 5.9% |
| CCCCN(CC)Cc1ccc(CNC(=S)Nc2ccccc2F)o1 | 6.6% |
| CCN(CC)S(=O)(=O)c1ccc(C(=O)NCc2ccc3c(c2)cc(C)n3C)cc1 | 15.2% |
